Compound in the experiment: CCc1nc(-c2cccc(C)c2)c(-c2ccnc(NC(=O)c3ccccc3)c2)s1 [TAK-715]
Put plainly: Viability of human cancer cell lines after 72 h of drug (GDSC screen). The settings on record: top dose inferred. As to the method: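 Human cancer cell lines in 384-well plates, medium with 10% serum, drug for 72 h over a 256-fold dose range (nine 2-fold or five 4-fold steps up to the top dose). Adherent lines were fixed and stained with the nucleic acid dye Syto60, suspension lines read with resazurin; signal relative to control wells, capped at 0 and 100%. One two-parameter sigmoid per drug and line, fitted in a mixed model over all curves with the slope shared within a line.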

The results in this text go back to the supplement of paper PMC4967469.

Lines with a small IC50 respond at low doses; where the fit passes the top or lowest dose, that dose stands as a limit. AUC sums up the same curve from the lowest dose to the 256-fold higher top dose; it is 1 without any effect and falls as sensitivity rises. The top dose, if marked as inferred, is not printed in the source and was worked back from the curve model.

For orientation: IC50 means the concentration that gives 50% inhibition. Consider “PSN1 (pancreas, adherent, top dose 20 µM)”, for which the AUC was 0.939 and the IC50 was greater than 20 µM.
For “QGP-1 (pancreas, adherent, top dose 20 µM)”, in that order: 0.965 and greater than 20 µM.
On to “QIMR-WIL (acute myeloid leukaemia, suspension, top dose 20 µM)”, for which the AUC amounted to 0.744 and the IC50 stood at 6.08 µM.
For “RC-K8 (B-cell lymphoma, suspension, top dose 20 µM)”, in that order: 0.909 and greater than 20 µM.
For “RCC10RGB (kidney, adherent, top dose 10.24 µM)”, in that order: 0.971 and greater than 10.2 µM.
The matching figures for “RCC-AB (kidney, adherent, top dose 20 µM)”: 0.826 and 17.4 µM.
As to “RCC-ER (kidney, adherent, top dose 20 µM)”, the AUC was 0.957 and the IC50 is greater than 20 µM.
With “RCC-FG2 (kidney, adherent, top dose 20 µM)”, the AUC is 0.921 and the IC50 is greater than 20 µM.
The matching figures for “RCC-JF (kidney, adherent, top dose 20 µM)”: 0.836 and 15.7 µM.
“RCC-JW (kidney, adherent, top dose 20 µM)”: the AUC came out at 0.911 and the 50% inhibitory concentration (IC50) is greater than 20 µM.
Take “RCC-MF (kidney, adherent, top dose 20 µM)”: the AUC was determined as 0.816 and the concentration for half-maximal inhibition (IC50) worked out at 15.5 µM.
Regarding “RCM-1 (large intestine, adherent, top dose 20 µM)”, the AUC stood at 0.94 and the half-maximal inhibitory concentration (IC50) was greater than 20 µM.
“RD (rhabdomyosarcoma, adherent, top dose 20 µM)”: the AUC was 0.983 and the concentration for half-maximal inhibition (IC50) is greater than 20 µM.
“REH (B-cell leukaemia, suspension, top dose 20 µM)”: the AUC stood at 0.859 and the 50% inhibitory concentration (IC50) was found to be 15.6 µM.
Consider “RERF-GC-1B (stomach, adherent, top dose 20 µM)”, for which the AUC amounted to 0.879 and the IC50 was greater than 20 µM.
The matching figures for “RERF-LC-KJ (lung adenocarcinoma, adherent, top dose 20 µM)”: 0.937 and greater than 20 µM.
As to “RERF-LC-MS (lung adenocarcinoma, adherent, top dose 20 µM)”, the AUC came to 0.971 and the IC50 is greater than 20 µM.
For “RERF-LC-Sq1 (lung squamous cell carcinoma, adherent, top dose 20 µM)”, in that order: 0.905 and greater than 20 µM.
The matching figures for “RF-48 (stomach, adherent, top dose 20 µM)”: 0.877 and greater than 20 µM.
The matching figures for “RH-1 (rhabdomyosarcoma, adherent, top dose 20 µM)”: 0.891 and 16.6 µM.
“RH-18 (rhabdomyosarcoma, adherent, top dose 20 µM)”: the AUC amounted to 0.985 and the IC50 is greater than 20 µM.
For “RH-41 (rhabdomyosarcoma, adherent, top dose 20 µM)”, in that order: 0.984 and greater than 20 µM.
The matching figures for RKN (ovary, adherent, top dose 20 µM): 0.973 and greater than 20 µM.
For “RKO (large intestine, adherent, top dose 20 µM)”, in that order: 0.859 and 14.8 µM.
In the case of “RL95-2 (endometrium, adherent, top dose 20 µM)”, the AUC is 0.973 and the half-inhibitory concentration (IC50) is greater than 20 µM.
For “RL (B-cell lymphoma, suspension, top dose 20 µM)”, in that order: 0.817 and 10 µM.
Turning to RMG-I (ovary, adherent, top dose 20 µM), the AUC is 0.897 and the 50% inhibitory concentration (IC50) is greater than 20 µM.
The matching figures for “RO82-W-1 (thyroid, adherent, top dose 20 µM)”: 0.983 and greater than 20 µM.
